# Laboratory results: the supplement of paper PMC3334620
# The full ranking holds about 33,000 sequences; the median of “E-score (-0.5 to 0.5)” is about -0.013, and the highest 2% start at about 0.3. The list shows a part of the results.
# Biological target: T1, Msn1 (UniProt P22148)
# T1 sequence: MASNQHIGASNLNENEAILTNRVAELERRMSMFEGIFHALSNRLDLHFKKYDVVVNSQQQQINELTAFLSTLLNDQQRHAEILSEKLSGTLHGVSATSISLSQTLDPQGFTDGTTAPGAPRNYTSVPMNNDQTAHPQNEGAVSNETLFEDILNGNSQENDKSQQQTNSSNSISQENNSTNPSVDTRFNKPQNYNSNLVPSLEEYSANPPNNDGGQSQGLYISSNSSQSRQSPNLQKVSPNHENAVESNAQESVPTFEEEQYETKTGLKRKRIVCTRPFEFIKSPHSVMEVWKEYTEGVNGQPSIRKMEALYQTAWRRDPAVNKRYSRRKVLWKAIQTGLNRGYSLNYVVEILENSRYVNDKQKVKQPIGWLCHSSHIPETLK
# Experiment: PBM E-score (8-mer binding enrichment) (E-score (-0.5 to 0.5)); higher = stronger / more preferred TF binding; most listed sequences are background and not binding sites
# Conditions: protein concentration: 200 nM; construct: GST-full length
# Description: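 Universal 'all 10-mer' protein binding microarrays (Agilent AMADID 015681) probed with GST-tagged S. cerevisiae TFs (full-length or DBD) made by in vitro transcription/translation (PURExpress), about 100-200 nM. Bound TF was detected with fluorescent anti-GST. Each ungapped 8-mer (which stands for itself and its reverse complement) is scored by the PBM enrichment score (E-score), a modified Wilcoxon-Mann-Whitney statistic from -0.5 to +0.5, computed with the Universal PBM Analysis Suite. Scale: above 0.35 generally sequence-specific binding.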
row,Sequence,PBM E-score
1,AAACGGCA,0.0504
2,ACTAGCGA,0.0418
3,ATACATCA,0.153
4,CAGACATA,0.366
5,CCGCGGAG,-0.0215
6,CCTTCAGC,-0.126
7,CCAAATCG,-0.101
8,ACAATACC,0.205
9,GGGGTACA,0.121
10,CCTCAGAC,-0.0919
11,AACAGGTG,-0.17
12,ACCACATC,-0.0537
13,AACTTTGG,0.016
14,ATGTTGAG,0.0577
15,GCAATTCC,-0.0706
16,AGCAGTAC,-0.0576
17,CTCTCGTA,-0.159
18,ACCACGTC,-0.108
19,ACCGTGAT,0.0644
20,ACCTGACG,-0.11
21,ACCGGGTG,-0.154
22,GCACCCCC,-0.413
23,CTGACCAA,0.0777
24,AGCAACCT,-0.21
25,GGGGAACC,-0.423

row,Sequence,PBM E-score
1,TGGTCACA,0.0752
2,TCGCAACA,0.0181
3,ATTGACCA,-0.0398
4,GATTAGCA,-0.0853
5,CTGCCTCA,-0.275
6,GTTAAACA,0.118
7,CGCTAATA,-0.188
8,AGCCCCGC,-0.0507
9,GATGCCCC,-0.341
10,AAGTGGCA,0.0461
11,AAACAAGT,0.0512
12,CTGGGGCC,-0.384
13,ACTACCGG,-0.166
14,GCAATGGA,-0.0993
15,AGCCGCAT,-0.0442
16,ATGAAAAG,0.0683
17,CTCTAGAC,-0.0491
18,ACATACTA,0.235
19,AACCACCA,-0.189
20,AACGCTTC,-0.00759
21,ACCGCGGG,-0.0237
22,CTAAAGAA,0.0225
23,ATATGACG,0.158
24,CATCTCGG,0.066
25,AGAGCCAG,-0.282

row,Sequence,PBM E-score
1,AAATCGTC,0.0939
2,ACCACAGA,0.0742
3,CACCATTA,0.0979
4,ACTGCTTA,-0.114
5,CCTTGATA,0.0964
6,ATTGCACC,-0.0985
7,ATCTAGCA,0.0323
8,GGCGCTTA,-0.299
9,ATATTAAT,0.243
10,AGCGCTTA,0.0118
11,ATGTGAAC,-0.0349
12,ACGACAAC,0.227
13,TAAATTAA,0.172
14,GTTGACTA,-0.183
15,GCCTTGGA,0.0275
16,AACTCTCT,-0.0871
17,ACATGTAA,0.255
18,AAAGTAGG,0.109
19,AGAGGCTG,-0.382
20,CTCAAACA,0.165
21,TAGGCCCA,-0.183
22,ACTGCCCG,-0.0201
23,ATATCTGC,-0.112
24,ACGATAAA,0.0963
25,ACGTCCCT,0.19

row,Sequence,PBM E-score
1,AGTAGAGG,-0.167
2,TAACTGTA,-0.0885
3,GCCACGAC,-0.0142
4,AGTTACGC,-0.213
5,CTGACCAG,-0.0937
6,AGCGAGAG,0.0105
7,ATAGACGG,-0.0751
8,TAGTATCA,0.182
9,AGGTGATG,-0.14
10,GAAAGGAA,-0.0601
11,CTACATCA,-0.0627
12,GCACTGTA,0.113
13,AATGACCT,-0.0518
14,ATTGGAAC,0.0992
15,CTCTGTTA,-0.0542
16,CCATGGAA,0.126
17,GTGTGGAA,-0.108
18,AACAGCCA,0.0435
19,ACCTCGTG,0.0137
20,CTCTAATA,0.0908
21,ATGTCGTC,0.191
22,ACTTCGCC,0.0719
23,CCTTTACA,-0.0441
24,CCACGATA,0.138
25,AAGGATAC,-0.00372

row,Sequence,PBM E-score
1,CGAGTTCA,-0.0815
2,GGGCCTAA,-0.0118
3,AAACTGAA,0.0948
4,ACGACCGG,-0.212
5,ATTATGTG,0.151
6,AAGGGTTC,-0.0924
7,ACTTATTG,0.046
8,ATTAGCCC,-0.0474
9,ATGCCTGA,-0.0658
10,GTCCTTCA,0.246
11,CTCCCAAG,-0.135
12,AGATTGCC,-0.0449
13,CGACAATA,0.334
14,CATCCGTC,0.0891
15,TCGCATAA,0.148
16,GTGATACA,0.0682
17,AAACCCTG,-0.0419
18,CACTCGGG,-0.0597
19,CCCCAGCG,-0.241
20,TACCCCAA,0.0746
21,CATACAAA,0.287
22,AACGAGAC,0.108
23,AAAATTAG,0.178
24,AGGTGCTG,-0.164
25,AATACAGT,-0.0154

row,Sequence,PBM E-score
1,AAAGGGTT,0.0188
2,CGAACGTC,-0.0117
3,AAGTTTAA,-0.0616
4,GACCTGCA,-0.0965
5,ACATACAA,0.225
6,CTCACGTA,-0.304
7,ATCATTTA,0.11
8,GGAAGCAA,-0.132
9,GACACGGC,0.197
10,CATAAGGC,-0.094
11,ATTGCGCG,0.156
12,TCGCAGCA,0.156
13,CACGCCCG,-0.00176
14,CCAGATTC,-0.389
15,ATGTGGAG,-0.0453
16,GAATGCCC,-0.207
17,GAAACATC,-0.0562
18,ACCTAATC,0.092
19,AAAGATAT,0.113
20,AAAGGATC,0.0854
21,CGTCATCC,0.0181
22,CCTGATCA,-0.143
23,CCTGGGAA,-0.131
24,ACGGTCAA,-0.0149
25,CCGATTCG,0.269

row,Sequence,PBM E-score
1,ATAACCCG,-0.102
2,AACGATAA,-0.0638
3,CATTACGA,-0.0951
4,GCACAAAA,0.099
5,CTCGCAAA,0.0568
6,GTCCCTAA,0.234
7,GACTGTAC,-0.198
8,CACCATCG,-0.224
9,ACCCTCTC,-0.226
10,AGCAGAGC,-0.114
11,AGGACGTC,0.177
12,CCTCTAAA,-0.123
13,AGCATCTC,-0.145
14,ATAAAGGG,-0.187
15,GCCTTGCA,-0.11
16,ACAATGCC,-0.0526
17,AATCACCT,0.0451
18,AGAGCGGA,-0.0348
19,GTTTAGGA,0.00119
20,ATTGGCGA,-0.0991
21,CTTGGATA,0.0413
22,ACCAGTAG,-0.0698
